Reference: PubChem BioAssay AID1768 (National Center for Advancing Translational Sciences (NCATS), 2009)
In all, about 270,000 compounds went through this assay and about 620 (0.23%) were called active. This list was built around the results that the source calls inconclusive (neither active nor inactive); the mix of calls is not that of the screen. The call rests on the fitted dose curve; in most records, active means well fitted inhibition curve with a large enough effect in the polarisation, with a control signal flat (not every such curve was filed as active); inconclusive means small, poorly fitted or top-dose-only effect, or effect the other way, or a change in a side signal; inactive means no such curve, though single readings can be large or run the other way; the % refers to the polarisation. Where the call is inconclusive, the potency comes from a doubtful curve fit. “Side channel” marks fits to a control or component signal instead of the main read-out.

Molecular target: Menin (Homo sapiens) (UniProt O00255)
Test: qHTS Assay for Inhibitors Targeting the Menin-MLL Interaction in MLL Related Leukemias: Competition With Texas Red Labeled MLL-derived Mutant Peptide; on FP activity change, negative = inhibition: % of control where 0% means no effect
Conditions: fluorescence polarization; FP activity change, negative = inhibition: at 61.6 µM (top of the series)
Source text: qHTS Assay for Inhibitors Targeting the Menin-MLL Interaction in MLL Related Leukemias NIH Chemical Genomics Center [NCGC] NIH Molecular Libraries Probe Centers Network [MLPCN] MLPCN Grant: MH084875-01A1 Assay Submitter (PI): Jolanta Grembecka, Tomasz Cierpicki, University of Virginia Translocations of the MLL (Mixed Lineage Leukemia) gene are frequently found in human leukemias affecting both children and adults. Fusion of MLL to one of more than 60 genes results in generation of oncogenic proteins upregulating Hox genes, which are vital to blood cell development. Patients harboring fusion of the MLL gene suffer from aggressive leukemias and respond poorly to available therapies. All of the oncogenic fusion proteins have a preserved N-terminal fragment of MLL that has been identified to interact with menin. It has been recently discovered that association with menin is critical to the leukemogenic activity of the MLL fusion oncoproteins. Selective targeting of the menin-MLL interaction could provide an attractive therapeutic approach to develop novel drugs for MLL-related leukemias. Small molecules blocking the menin-MLL interaction should reverse the oncogenic potential of MLL fusion proteins. We have developed and optimized a fluorescence polarization-based assay for the identification of Menin-MLL inhibitors. The assay was run employing two different MLL-derived peptides. The present assay uses a 12 amino acid peptide labeled with fluorescein at its N-terminus. This peptide consists of the menin high affinity binding motif from MLL and is potently bound by menin. Another peptide with a mutated sequence, labeled with Texas Red, was used in parallel as a less stringent screen for inhibitors.
The Menin protein, the MLL-wild type (w.t.) derived peptide (N-terminal 12 amino acids), the MLL-derived peptide labeled with Texas Red and the MLL-w.t. peptide labeled with Fluorescein were kindly supplied by laboratory of Dr. Jolanta Grembecka, University of Virginia. All protein and peptide solutions were stored in single use aliquots at -80C. The Eu3+ Cyrptate-conjugated mouse monoclonal antibody anti-6 Histidine (Eu3+-AB) and the Streptavidin-XL665 conjugate (XL665) were purchased from Cisbio International (Bedford, MA). All antibody and XL665 conjugate solution stocks were stored in single use aliquots at -20C. The Buffer components for all assays were purchased from Sigma-Aldrich (St. Louis, MO) and Invitrogen (Carlsbad, CA). FP Assay Reagents: 1. FP reaction buffer: 50 mM Tris-HCl pH 7.5, 50 mM NaCl, 1mM DTT. Before use, 0.05% BSA is added. 2. Menin protein, MLL-w.t. labeled with fluorescein, MLL-mutant peptide labeled with texas red. Stored in singe use aliquots at -80C. 3. MLL-w.t. unlabeled peptide as positive control: 10 uM final in FP buffer. FP Assay Procedure: 1. Prepare Menin at 200 nM, MLL-w.t.-fluorescein at 25 nM, and MLL-mutant-texas red at 50 nM mixture in FP buffer. 2. Prepare Menin at 200 nM, MLL-w.t.-fluorescein at 25 nM, MLL-mutant-texas red at 50 nM, and 10 uM MLL-w.t. unlabeled mixture in FP buffer. 3. Prepare MLL-w.t.-fluorescein at 25 nM and MLL-mutant-texas red at 50 nM mixture in FP buffer. 3. Dispense 4 ul per well of reagent in step 1 in columns 2, 4 - 48 in a black 1536 well plate, dispense 4 ul per well of reagents from steps 2 and 3 in columns 1 and 3 respectively. Incubate plate at ambient for 15 minutes. 4. Transfer 23 nl per well of compound to plate and incubate at ambient for 1 hr. 5. Read fluorescence polarization for each label using the PerkinElmer Envision. Envision protocol for fluorescein: FITC FP Dual Enh Mirror, Excitation filter 480, Emission filter (1) P-pol 535, Emission filter (2) S-pol 535 Envision protocol for texas red: FP Dual Enh Mirror, Excitation filter 555, Emission filter (1) P-pol 632, Emission filter (2) S-pol 632
Potency means the concentration at half of the fitted maximal effect; tags describe the fitted curve by direction and shape or compound fluorescence and quenching.

Chain of UniProt O00255 (O00255 whole entry, looked up): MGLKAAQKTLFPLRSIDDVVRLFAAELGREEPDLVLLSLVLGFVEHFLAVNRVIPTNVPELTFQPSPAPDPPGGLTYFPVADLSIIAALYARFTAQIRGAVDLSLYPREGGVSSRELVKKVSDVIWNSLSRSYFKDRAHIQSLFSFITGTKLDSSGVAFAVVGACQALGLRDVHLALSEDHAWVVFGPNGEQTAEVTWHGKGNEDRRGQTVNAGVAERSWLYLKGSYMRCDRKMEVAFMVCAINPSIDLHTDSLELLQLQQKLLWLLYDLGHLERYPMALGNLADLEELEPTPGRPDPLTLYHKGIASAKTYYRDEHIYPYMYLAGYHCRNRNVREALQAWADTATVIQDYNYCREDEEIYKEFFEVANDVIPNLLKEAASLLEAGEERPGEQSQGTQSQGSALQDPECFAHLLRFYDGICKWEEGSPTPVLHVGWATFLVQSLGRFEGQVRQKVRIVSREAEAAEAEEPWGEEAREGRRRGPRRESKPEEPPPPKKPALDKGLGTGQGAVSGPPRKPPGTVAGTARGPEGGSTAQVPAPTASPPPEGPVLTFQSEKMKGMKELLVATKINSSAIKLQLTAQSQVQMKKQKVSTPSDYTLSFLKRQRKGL

Structure (SMILES)	Potency	FP activity change, negative = inhibition
O=C(CN1C(=O)S/C(=C/C=C/c2ccccc2)C1=O)Nc1ccc(C(=O)O)cc1	inconclusive: 22.4 µM [quencher, side channel, partial curve]	–
O=C(CCc1ccccc1)NCC1(c2ccccc2)CCCC1	inconclusive: 28.2 µM [inhibitor, single point]	–
CCOC(=O)/C=C/C(=O)Nc1ccc(S(=O)(=O)N2CCc3ccccc32)cc1	inconclusive: 15.8 µM [quencher, side channel, partial curve]	–
COc1cc(/C=C2\C(=O)NN(c3ccccc3)C2=O)cc([N+](=O)[O-])c1O	inconclusive: 31.6 µM [quencher, side channel, single point]	–
CCC(=O)N1CCc2cc(Br)cc(S(=O)(=O)N3CCCCC3CC)c21 (configuration not stated)	inconclusive: 22.4 µM [fluorescent, side channel, partial curve, poor fit]	–
CCOc1ccc(CNC(=O)CN2C(=O)CSc3ccc(S(=O)(=O)N4CCOCC4)cc32)cc1OC	inconclusive: 3.98 µM [quencher, side channel, full curve]	–
Cc1sc(NC(=O)c2ccco2)c(CN2CCN(c3ccccn3)CC2)c1C	inconclusive: 28.2 µM [inhibitor, single point]	–
N/C(=N\OC(=O)c1ccc(Br)cc1)c1cccc([N+](=O)[O-])c1	inconclusive: 39.8 µM [quencher, single point]	–
Cc1cc(OCC(=O)NNC(=O)CCc2ccccc2)ccc1Br	inconclusive: 39.8 µM [fluorescent, side channel, single point]	–
O=C1CN(C(=O)c2cccc(F)c2)C(c2ccc(F)cc2)c2cc(F)ccc2N1 (configuration not stated)	inconclusive: 28.2 µM [inhibitor, partial curve]	–
O=C(NCc1ccc(/C=N\NC(=O)C(=O)Nc2ccccc2Br)o1)C(=O)Nc1ccccc1	inconclusive: 10 µM [fluorescent, side channel, partial curve]	–
COc1ccc(N2C(=O)C(CC(=O)Nc3ccc(F)cc3)N(CCc3ccc(OC)c(OC)c3)C2=O)cc1 (configuration not stated)	inconclusive: 31.6 µM [quencher, side channel, single point]	–
COc1ccc(N(CC(=O)N/N=C(\C)c2ccc(OC)c(OC)c2)S(=O)(=O)c2ccccc2)cc1	inconclusive: 39.8 µM [fluorescent, side channel, single point]	–
CCCCc1ccc(N=N/C(C(=O)Nc2ccc(NC(C)=O)cc2OC)=C(/C)O)cc1	inconclusive: 10 µM [quencher, side channel, partial curve]	–
COc1ccc(Cl)cc1NC(=O)COc1ccc(S(=O)(=O)N2CCOCC2)cc1C	inconclusive: 31.6 µM [fluorescent, single point]	–
COc1ccc(-c2cc(C(F)(F)F)nc(SCC(=O)Nc3ccc4c(c3)OCO4)n2)cc1	inconclusive: 39.8 µM [inhibitor, single point]	–
CCCS(=O)(=O)N1CCN(CC2CC=CCC2)CC1 (configuration not stated)	–	inactive: -5.03%
c1nc2nc(Nc3ccc(N4CCOCC4)cc3)nc(NC3CCCCC3)c2[nH]1	inconclusive: 12.6 µM [quencher, side channel, partial curve]	–
N=C1/C(=C\c2ccc(OC(=O)c3ccc(F)cc3)cc2)C(=O)N=C2SC(N3CCOCC3)=NN12	inconclusive: 12.6 µM [quencher, side channel, partial curve]	–

Structure (SMILES)	Potency	FP activity change, negative = inhibition
Cc1ccc(C)c(S(=O)(=O)N/N=C/c2ccc(N(C)C)cc2)c1	inconclusive: 31.6 µM [quencher, side channel, single point]	–
CS(=O)(=O)c1ccc(C(=O)Nc2ccc(-c3nc4ccccc4[nH]3)cc2)cc1	inconclusive: 7.08 µM [inhibitor, single point]	–
O=C(O)CCCNc1cc(N2CCC3(CC2)OCCO3)c2noc3c2c1C(=O)c1ccccc1-3	inconclusive: 20 µM [fluorescent, side channel, partial curve]	–
O=c1cc(-c2ccc(O)cc2)oc2cc(O[C@@H]3O[C@H](CO)[C@H](O)[C@H](O)[C@H]3O)cc(O)c12	–	inactive: -21.6%
COc1cccc(C(=O)Oc2ccc(/C=N/Nc3ccc(C(=O)O)cc3)cc2OC)c1	inconclusive: 12.6 µM [quencher, side channel, partial curve]	–
O=C(O)CCNc1ccc(NCCC(=O)O)c2c1C(=O)c1ccccc1C2=O	inconclusive: 28.2 µM [fluorescent, side channel, partial curve]	–
Clc1cccc(Nc2ncnc3ccc(Br)cc23)c1	inconclusive: 17.8 µM [quencher, side channel, partial curve]	–
Cc1cc(C)c(S(=O)(=O)c2ccccc2)c(OC(=O)c2c(Cl)cc(Cl)cc2Cl)n1	–	inactive: 5.08%
COc1cccc(CN2CCN(C(c3ccccc3)c3ccccc3)CC2)c1O	–	inactive: -19.4%
Oc1ccc(/C=N/N2CCCCC2)c(O)c1O	inconclusive: 7.08 µM [quencher, side channel, full curve]	–
O=C(CCC(=O)Nc1ccc(Br)cc1)N/N=C/c1ccccc1F	inconclusive: 35.5 µM [inhibitor, single point]	–
COc1ccc(-c2cnnc(N/N=C/c3ccc(O)cc3)n2)cc1	inconclusive: 22.4 µM [quencher, side channel, partial curve]	–
O=C(N/N=C/c1c(F)c(F)c(F)c(F)c1F)c1cc(-c2ccccc2)nc2ccccc12	inconclusive: 25.1 µM [fluorescent, side channel, partial curve]	–
CCCCCCN1C=C/C(=C\C=C(C#N)C#N)c2ccccc21	inconclusive: 7.94 µM [fluorescent, side channel, full curve]	–
COc1ccc(OCC(=O)Nc2ccc3c(c2)nc(CCN2CCCCC2)n3C)cc1	–	inactive: -2.23%
CCCn1c(=O)c2c(nc3n2CCCN3CCc2ccccc2)n(C)c1=O	inconclusive: 28.2 µM [fluorescent, side channel, partial curve]	–
O=C(/C=C/c1ccco1)NC(=S)Nc1nc(-c2ccc(Cl)cc2)cs1	inconclusive: 11.2 µM [quencher, side channel, partial curve]	–
Cc1ccc(S(=O)(=O)N(CC(=O)NCc2ccco2)Cc2ccccc2F)cc1	inconclusive: 31.6 µM [fluorescent, side channel, single point]	–
Cc1cc(OCC(O)CNC(C)(C)C)ccc1Cl (configuration not stated)	inconclusive: 7.94 µM [fluorescent, side channel, full curve]	–

Structure (SMILES)	Potency	FP activity change, negative = inhibition
CCCCc1nc2c(c3c1C[C@H](C)OC3)CN(S(=O)(=O)CCCC)CC2	inconclusive: 3.55 µM [inhibitor, partial curve, poor fit]	–
CCCCCC1CC(CC(=O)Nc2ccc([N+](=O)[O-])cc2)C(=O)O1 (configuration not stated)	–	inactive: 16.7%
COc1ccc(-c2nc(C#N)c(NCCc3ccccc3)o2)cc1	inconclusive: 12.6 µM [quencher, side channel, partial curve]	–
COc1ccc(S(=O)(=O)NCc2ccco2)cc1NC(=O)c1ccccc1	inconclusive: 3.16 µM [inhibitor, partial curve]	–
O=C1Nc2ccccc2S/C1=C/Nc1cccc(Cl)c1	inconclusive: 28.2 µM [quencher, side channel, partial curve]	–
COc1ccc(CNc2nc(=S)[nH]c3cc(OC)c(OC)cc23)cc1	inconclusive: 39.8 µM [inhibitor, single point]	–
COc1ccc(/C=C/C(=O)C2CC2)cc1COc1c(C)cccc1C	inconclusive: 5.62 µM [inhibitor, single point]	–
COC(=O)c1ccccc1OCCN1CCCCCC1	inconclusive: 25.1 µM [inhibitor, single point]	–
O=C(N/N=C/c1ccc(F)cc1)c1c(O)c2ccccc2[nH]c1=O	inconclusive: 8.91 µM [inhibitor, partial curve]	–
COCCN1CCC(CNCc2cn(-c3cc(C)ccc3C)nc2-c2ccccc2)C1 (configuration not stated)	inconclusive: 2.82 µM [fluorescent, side channel, full curve]	–
O=C(Nc1ccccc1Cl)Oc1ccc(-c2ccccc2)cc1	–	inactive: 38.9%
S=C(N/N=C/c1ccccc1Cl)Nc1ccccc1	inconclusive: 44.7 µM [quencher, side channel, partial curve]	–
Cc1ccc2cc(CN(Cc3ccc(F)cc3)Cc3nnnn3C3CCCC3)c(=O)[nH]c2c1	inconclusive: 2.82 µM [inhibitor, partial curve]	–
O=C1C(Cl)=C(Nc2cccc(O)c2)C(=O)N1Cc1ccccc1	inconclusive: 28.2 µM [quencher, side channel, single point]	–
COc1cc2[nH]c3c(N4CCN(c5ccc(Cl)cc5)CC4)ncnc3c2cc1OC	inconclusive: 17.8 µM [quencher, side channel, partial curve]	–
O=c1[nH]c(SCc2c(Cl)cccc2Cl)nc2ccccc12	inconclusive: 22.4 µM [inhibitor, partial curve]	–
Nn1c(-c2cccc([N+](=O)[O-])c2)nc2ccccc2c1=O	inconclusive: 2.82 µM [inhibitor, partial curve]	–
Cc1cccc(NC(=O)CN2C(=O)N/C(=C\c3ccc(N4CCOCC4)cc3)C2=O)c1	inconclusive: 28.2 µM [quencher, side channel, partial curve]	–
COCCNC(=O)C(=O)NNC(=O)c1ccccc1OC	inconclusive: 1.41 µM [inhibitor, full curve, poor fit]	–
